Test results reported in PubChem BioAssay AID1508624 (National Center for Advancing Translational Sciences (NCATS), 2021).
The whole screen tested about 48,000 compounds, of which about 120 (0.25%) were called active. About 4% were inconclusive and are not listed. Calls come from the whole dose curve; as a rule, active = well fitted activation curve with a large enough effect; inconclusive = small, poorly fitted or top-dose-only effect, or another doubt; inactive = no such curve, though single readings can be large or run the other way. The list shows a part of the results.

Experiment: Primary qHTS for Identification of Small Molecule Activators of Huntingtin-Antisense Promoter Activity; note: nearly all actives have a fitted effect of over 55% in size
Details: HEK293 HTT-AS promoter firefly luciferase reporter (activity 0% = vehicle and -100% = no light), 24 h; series mostly up to 57.5 µM; activity change, positive = activation: at the top concentration
Text: Assay Provider: Russell L. Margolis M.D.
Department Neurology, Johns Hopkins University School of Medicine, Baltimore, MD
Huntington's Disease (HD) is a neurodegenerative disorder caused by a CAG repeat expansion in exon 1 of huntingtin (HTT). While there are currently no disease-modifying treatments for HD, recent efforts have focused on development of nucleotide-based therapeutics to lower HTT expression. As an alternative to siRNA or oligonucleotide methods, we hypothesized that suppression of HTT expression might be accomplished by small molecules that either (1) directly decrease HTT expression by suppressing HTT promoter activity or (2) indirectly decrease HTT expression by increasing the promoter activity of HTT-AS, the gene antisense to HTT that appears to inhibit expression of HTT.
We developed and employed a high throughput screen for modifiers of HTT and HTT-AS promoter activity using luminescent reporter HEK293 cells; of the 52,041 compounds tested, we identified 898 replicable hits. We used a rigorous stepwise approach to assess compound toxicity and the capacity of the compounds to specifically lower huntingtin protein in 5 different cell lines, including HEK293 cells, HD lymphoblastoid cells, mouse primary neurons, HD iPSCs differentiated into cortical-like neurons, and HD hESCs. We found no compounds which were able to lower huntingtin without lowering cell viability in all assays, though the potential efficacy of a few compounds at non-toxic doses could not be excluded.
SEQUENCE No. (1, 2, 3, etc.); […] (e.g., Cells, Incubation, Reagent, etc.); VALUE and DESCRIPTION.
1; Reagent; 4 uL; 2,500 Hek293 luciferase reporter cells per wells
3; Compound; 23 nL; Control inhibitor / compound library
5; Reagent; 2.5 uL; Firefly Luc reagent; Dual-Glo Luciferase Reporter Assay System (Promega)
6; Time; 10 min; room temperature incubation
7; Detection; Luminescence; FLuc
NOTES (numbers refer to sequence above)
1; High-throughput screening, measuring luminescence from a Hek293 luciferase reporter, was performed in 1,536 well white-walled tissue-culture treated plates. 2,500 cells were plated in 4 µL of Opti-MEM per well using a Multidrop Combi Reagent Dispenser (ThermoFisher).
2; Assay plates were cultured for 24 hours.
3; Control inhibitor (PTC124; final concentration of 50 uM) and compound library (at final concentrations of 460 nM - 57.5 uM) were added to the assay plate using the Kalypsis Pintool Robotic System equipped with 1536 pinheads.
4; Cells were then incubated for 24 hours at 37 degrees C prior to luminescence measurements.
5; In all cases, luminescence was measured using the Dual-Glo Luciferase Reporter Assay System (Promega) following the manufacturer's instructions.
6; Room temperature incubation.
7; Luminescence signal was obtained using the PerkinElmer ViewLux plate reader. Results were normalized to vehicle control (0% activity) and zero RLU (-100% activity).

Activity change, positive = activation, inactive:
COc1ccccc1NC(=O)CSc1nc(-c2ccccc2F)nc2cc(=O)[nH]n12 -16.7%
COc1ccc(NC(=O)c2c(NCc3cccc(OC)c3)sc3c2CCCC3)cc1 -18.9%
Cc1ccc2occ(CC(=O)N(Cc3ccc(C(C)C)cc3)C3CCS(=O)(=O)C3)c2c1 (configuration not stated) -24.6%
O=C(CCC1N=C2c3ccccc3N=C(SCc3ccccc3F)N2C1=O)NCc1ccc(F)cc1 (configuration not stated) 0%
CC(C)(C)c1ccc(C(=O)N2CCC(c3nc4ccccc4o3)CC2)cc1 -14.2%
COc1ccc(-c2onc(C)c2C)cc1S(=O)(=O)NCC1CCN(Cc2cccc(F)c2)CC1 -24.7%
CC1=C(c2ccc(Cl)cc2)S(=O)(=O)N=C1N1CCC(C(=O)NCc2ccccc2F)CC1 -14.9%
COc1ccc(CCNc2nc3c(-c4cccc(C)c4)nnn3c3ccccc23)cc1OC -12.6%
Cc1ccc(Cn2c(C(=O)O)c(CNC3CCCC3)c3ccc(C)cc32)cc1 -18.7%
Cc1ccc(OCc2ccc(-c3nc(C#N)c(NCc4ccccc4Cl)o3)o2)cc1 -31.3%
Cc1cc(C)cc(-n2c(SCC(N)=O)nc3c([nH]c4ccccc43)c2=O)c1 -33.4%
O=C(Nc1ccccc1C(F)(F)F)N1CCC(CN2CCc3ccccc3C2)CC1 -10.7%
COc1ccc(C)cc1NC(=O)C(Cc1ccccc1)NS(=O)(=O)c1cccs1 (configuration not stated) -25%
O=C(NC1CC(=O)N(c2cccc(F)c2)C1)c1cc2ccccc2o1 (configuration not stated) 6.08%
CCOC(=O)c1ccc(CN(Cc2ccccc2C)S(=O)(=O)c2ccc(F)c(C)c2)cc1 -17.9%
COc1ccc(Nc2ncnc3c2cnn3-c2ccc(C)cc2)cc1Cl -39.9%
Cc1ccc2nc(-c3cccc(NC(=O)c4cccc5ccccc45)c3)oc2c1 15.7%
CCC(=O)N1CCc2cc(Br)cc(S(=O)(=O)CCC(=O)NCc3cccc(OC)c3)c21 10.1%
Cc1ccccc1CSc1nc2ccsc2c(=O)n1CCC(C)C -5.18%
COc1ccccc1NC(=O)c1oc2ccccc2c1NC(=O)C1CCCCC1 13.6%
CC1C(=O)N2CCCc3cc(S(=O)(=O)N4CCC(C(N)=O)CC4)cc1c32 (configuration not stated) 6.21%
Cc1ccc2cc(CN(C(=O)c3cccc(Cl)c3)c3ccccc3)c(=O)[nH]c2c1 2.31%
CCCSCCCNC(=O)c1ccc2c(c1)sc1nc(-c3ccc(OCC)cc3)cn12 -1.9%
COc1ccccc1Nc1nn2c(=O)c3ccc(C(=O)NCCC4=CCCCC4)cc3nc2s1 -87.9%
COc1cccc(CNC(=O)c2cnc(N3CCCCC3)c3ccccc23)c1 -16.8%
O=C(NCc1ccccc1F)C1CCN(c2nn3cc(-c4ccc(F)cc4)nc3s2)CC1 26.5%
CN1c2ccc(Cl)cc2-c2nc(SCC(=O)NCc3ccccc3)ncc2S1(=O)=O -29.8%
COc1ccc(Cn2ccnc2SCC(=O)NCc2ccco2)cc1 1.47%
Cc1cccc(N2CCN(S(=O)(=O)c3ccc4c(c3)CC(=O)N4C)CC2)c1C 0%
CCN(CC)CCNC(=O)Cn1nc(C)c2c(C)n(-c3ccccc3)nc2c1=O 3.07%
CCn1c(=O)c2cc(C(=O)NCCCN3CCC(C)CC3)sc2c2ccccc21 -8.13%
COC(=O)c1ccccc1NC(=O)c1ccc2nc(CCc3ccccc3)oc2c1 5.77%
Cc1ccc(Cl)cc1NC(=O)CSc1nc2ccccc2nc1Cc1ccccc1 -6.3%
CCOc1ccc(-n2c(SCC(=O)NC3CCCCC3)nc3c([nH]c4ccccc43)c2=O)cc1 -7.99%
Cc1ccc(-n2c(=O)c3c(cnn3C)n(CC(=O)Nc3ccccc3C)c2=O)cc1 -6.77%
Cc1cccc(Cn2cc(S(=O)(=O)c3cccc(C)c3)c(=O)c3cc(F)c(N4CCOCC4)cc32)c1 -8.32%
COc1ccc2nc(C)cc(Nc3ccc(Cl)c(Cl)c3)c2c1 -55.7%
Cc1ccc(CNC(=O)CCCn2c(=O)[nH]c3ccc(Br)cc3c2=O)cc1 1.84%
CCCCn1c(=NC(=O)c2cc3ccccc3o2)c(C(=O)OCC)cc2c(=O)n3ccccc3nc21 13.3%
O=C(Cn1c(=O)oc2cc(S(=O)(=O)N3CCCCC3)ccc21)NCc1ccc(Cl)cc1 -35.6%
O=C(Oc1ccc(Cl)cc1)c1cc(-c2ccc3c(c2)OCCO3)on1 -6.9%
CCOc1cc2c(cc1OCC)C(CC(=O)O)N(C(=O)Nc1ccccc1C(F)(F)F)CC2 (configuration not stated) -5.4%
Cc1cc(C)nc(-n2nc(C)c3c2NC(=O)CC3c2cccc(O)c2)n1 (configuration not stated) -3.73%
Cc1cc2nn(-c3ccc(F)cc3)nc2cc1NC(=O)c1cccc2c(Cl)cccc12 13.5%
CCOC(=O)c1ccc2c(c1)N(Cc1ccc(F)cc1Cl)C(=O)c1ccccc1S2(=O)=O -24.9%
CCn1c(C)c(C)c2cc(C(=O)NCc3ccc(F)cc3)ccc21 -8.29%
COc1ccc(-n2cc(-c3ccccc3)c3c(Nc4ccc(OC)c(OC)c4)ncnc32)cc1 -14.1%
